Measured values published in the supplement of paper PMC3334620.
The full ranking holds about 33,000 sequences; the median of “E-score (-0.5 to 0.5)” is about -0.016, and the highest 2% start at about 0.32. Some of the results follow.

Biological target: T1, Stp1 (UniProt B3LFK1)
T1 sequence: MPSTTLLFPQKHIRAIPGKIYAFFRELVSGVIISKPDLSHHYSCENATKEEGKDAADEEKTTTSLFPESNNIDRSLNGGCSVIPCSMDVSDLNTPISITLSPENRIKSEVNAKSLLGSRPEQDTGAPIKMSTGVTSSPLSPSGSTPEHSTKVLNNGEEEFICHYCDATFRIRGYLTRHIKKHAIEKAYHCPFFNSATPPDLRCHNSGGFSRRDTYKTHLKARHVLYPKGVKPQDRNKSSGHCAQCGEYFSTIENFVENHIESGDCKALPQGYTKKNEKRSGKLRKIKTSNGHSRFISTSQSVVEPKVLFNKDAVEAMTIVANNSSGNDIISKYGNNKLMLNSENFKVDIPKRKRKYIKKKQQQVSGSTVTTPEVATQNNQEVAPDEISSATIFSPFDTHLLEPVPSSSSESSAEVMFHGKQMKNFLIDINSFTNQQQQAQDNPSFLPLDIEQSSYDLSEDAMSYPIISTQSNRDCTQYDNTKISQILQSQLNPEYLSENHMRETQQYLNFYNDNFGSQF
Assay: PBM E-score (8-mer binding enrichment) (E-score (-0.5 to 0.5)); higher = stronger / more preferred TF binding; most listed sequences are background and not binding sites
Settings: protein concentration: 200 nM; construct: GST-full length
Procedure, shortened: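 For each ungapped eight-base word taken together with its reverse complement, the Universal PBM Analysis Suite assigned an E-score. Binding data came from GST-tagged yeast transcription factors, applied at about 100-200 nM, on universal all-10-mer Agilent arrays made double-stranded by primer extension. Fluorescent anti-GST marked bound protein, and scans were normalised with masliner.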

| Sequence | PBM E-score |
| --- | --- |
| ATTAGTTA | 0.209 |
| CAGCCGAC | -0.0459 |
| ATGCTGAA | -0.132 |
| AAGCCATC | 0.159 |
| ATCGCGCA | -0.0273 |
| GAACACAA | -0.00776 |
| GCCTCTCC | 0.0401 |
| AATATTAG | 0.134 |
| GTCATCAC | -0.0223 |
| ACAGTAGG | 0.0244 |
| AGCGCACG | 0.0865 |
| AGGCGTGC | 0.179 |
| TAGGGAGA | -0.19 |
| ATTCAGTG | -0.0101 |
| AGACTATC | 0.0712 |
| GCCTCTTA | 0.29 |
| CTCTCAAC | -0.0585 |
| GTAACAAA | 0.219 |
| CACTGACC | -0.318 |
| AGTTCGAA | 0.196 |
| CTTCGGTA | -0.157 |
| CGTGAACC | -0.19 |

| Sequence | PBM E-score |
| --- | --- |
| AACACAGG | -0.16 |
| AGAGGATG | -0.251 |
| ACCTCACG | -0.0143 |
| GGTATCGA | 0.0389 |
| CTAATGCC | 0.221 |
| ACCGTATC | 0.139 |
| CATATAAG | 0.118 |
| TCAGAGAA | -0.0777 |
| AGACAAAT | 0.0977 |
| CTTCGCTA | -0.0729 |
| CGATTACC | -0.0519 |
| AGGCTAAG | -0.0187 |
| ATTTTCCA | 0.149 |
| CGACAACA | 0.127 |
| GGTCGCAC | -0.0736 |
| ACTTCCAT | -0.141 |
| GGGTCCTA | -0.267 |
| CATTGACC | -0.00477 |
| CCACTAGG | -0.182 |
| AATACCGC | 0.0472 |
| CTTCATAA | 0.249 |
| ACGCCTTA | 0.294 |

| Sequence | PBM E-score |
| --- | --- |
| CCACGGAA | 0.198 |
| GAAGTCGC | 0.0115 |
| GTATCCGA | 0.0538 |
| TGCCCGAA | -0.0659 |
| GAGAAGCC | -0.0953 |
| GAGCTACC | -0.141 |
| CCAATAAG | 0.124 |
| GCTGTGCC | 0.182 |
| AACTTATT | 0.111 |
| AACGGTTA | -0.0803 |
| ACACTAGC | -0.0227 |
| GCCAGCGA | -0.147 |
| AATAAGTC | -0.106 |
| AGACCACT | -0.184 |
| CCATCAAC | -0.0151 |
| ATGGGGCC | -0.229 |
| AACAGAGA | -0.0939 |
| CTATGTTC | -0.0988 |
| CAATGAAG | 0.0392 |
| AATAGTAT | 0.168 |
| CCGGCTCG | -0.0179 |
| CGACGAGA | -0.152 |

| Sequence | PBM E-score |
| --- | --- |
| CATGAAAA | 0.092 |
| GGGAACCC | -0.208 |
| CACTTCGC | 0.0681 |
| GCCTGTAC | 0.114 |
| AAATACAA | 0.257 |
| CGGGGGTC | -0.439 |
| AAGTATCC | -0.0783 |
| AACTGTAG | 0.0446 |
| CGGACACG | 0.167 |
| CACAACCA | 0.187 |
| AGATTTGG | -0.159 |
| CCGACTCG | -0.12 |
| TACATCAA | -0.00825 |
| AAGCGGCG | 0.458 |
| AATTCTGC | 0.135 |
| GAGTGGGC | 0.004 |
| CTATTGCC | 0.0651 |
| GCAGAGCC | 0.0995 |
| AACACTGA | 0.121 |
| CCGAAACC | -0.227 |
